For 1 protein, Km results are on record in US5891696A, “Compositions for cytochrome P450 biotransformation reactions” (Panvera Corporation, priority 1997, dated 1999).

Substrate in this series: CN(C)CCC=C1c2ccccc2CCc2ccccc21
Nature of the series: cells, lysate or membranes. The settings on record: other: Baculosomes.

B1: P450 3A4 (insect cell microsomes with NADPH-P450 reductase) (Homo sapiens) (protein)
chain: MALIPDLAMETWLLLAVSLVLLYLYGTHSHGLFKKLGIPGPTPLPFLGNILSYHKGFCMFDMECHKKYGKVWGFYDGQQPVLAITDPDMIKTVLVKECYSVFTNRRPFGPVGFMKSAISIAEDEEWKRLRSLLSPTFTSGKLKEMVPIIAQYGDVLVRNLRREAETGKPVTLKDVFGAYSMDVITSTSFGVNIDSLNNPQDPFVENTKKLLRFDFLDPFFLSITVFPFLIPILEVLNICVFPREVTNFLRKSVKRMKESRLEDTQKHRVDFLQLMIDSQNSKETESHKALSDLELVAQSIIFIFAGYETTSSVLSFIMYELATHPDVQQKLQEEIDAVLPNKAPPTYDTVLQMEYLDMVVNETLRLFPIAMRLERVCKKDVEINGMFIPKGVVVMIPSYALHRDPKYWTEPEKFLPERFSKKNKDNIDPYIYTPFGSGPRNCIGMRFALMNMKLALIRVLQNFSFKPCKETQIPLKLSLGGLLQPEKPVVLKVESRDGTVSGA
In the case of B1, the Km was 56 µM.

As a reminder, the Km is the concentration of substrate that gives half-maximal velocity.
